# The list shows a part of the results.
# B1: PFL (Pseudomonas fluorescens) (protein)
# chain: MSKYAVANQWGGSSAPWHPGGTWVLGARDNQNVVAIEIKSGDGGKSFTGTMTYAGEGPIGFKAQRTGQNQYNVENQWGGNDAPWHPGGKWVIGGRDNQNVIALSVTSSDGGKNLSGTNTYANEGPIGFRGQIE
# Key:
# Assay in all cases: glycan array binding signal (z-score within array); higher = stronger binding
# Details in all cases: glycan notation: IUPAC condensed, linker removed
# [1] = target: Gal(b1-4)GlcNAc(b1-6)Gal(b1-4)GlcNAc
# Summary of the method: (§1)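 Arrays were curated from the Consortium for Functional Glycomics database, 3228 in total, and kept only where the protein sequence was available. Binding is expressed as a within-array Z-score. This score was averaged across arrays of the same protein sequence at different concentrations or buffers and across linkers, and negative values can be read as non-binding.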
# [2] = target: Gal(b1-4)GlcNAc(b1-6)GalNAc
# Summary of the method: as §1
# [3] = target: Gal(b1-4)GlcNAc(b1-6)[Gal(b1-3)]GalNAc
# Summary of the method: as §1
# [4] = target: Gal(b1-4)GlcNAc(b1-6)[Gal(b1-4)GlcNAc(b1-3)]GalNAc
# Summary of the method: as §1
# Gal(b1-4)GlcNAc6P = target: Gal(b1-4)GlcNAc6P
# Summary of the method: as §1
# Gal(b1-6)Gal = target: Gal(b1-6)Gal
# Summary of the method: as §1
# Gal3S(b1-3)GalNAc = target: Gal3S(b1-3)GalNAc
# Summary of the method: as §1
# Gal3S(b1-3)GlcNAc = target: Gal3S(b1-3)GlcNAc
# Summary of the method: as §1
# [5] = target: Gal3S(b1-3)[Fuc(a1-4)]GlcNAc
# Summary of the method: as §1
# Gal3S(b1-4)Glc = target: Gal3S(b1-4)Glc
# Summary of the method: as §1
# Gal3S(b1-4)Glc6S = target: Gal3S(b1-4)Glc6S
# Summary of the method: as §1
# Gal3S(b1-4)GlcNAc = target: Gal3S(b1-4)GlcNAc
# Summary of the method: as §1
# [6] = target: Gal3S(b1-4)[Fuc(a1-3)]Glc6S
# Summary of the method: as §1
# [7] = target: Gal3S(b1-4)[Fuc(a1-3)]GlcNAc
# Summary of the method: as §1
# [8] = target: Gal3S(b1-4)[Fuc(a1-3)]GlcNAc6S
# Summary of the method: as §1
# Gal3S4S(b1-4)GlcNAc = target: Gal3S4S(b1-4)GlcNAc
# Summary of the method: as §1
# Gal3S6S(b1-4)GlcNAc = target: Gal3S6S(b1-4)GlcNAc
# Summary of the method: as §1
# Gal3S6S(b1-4)GlcNAc6S = target: Gal3S6S(b1-4)GlcNAc6S
# Summary of the method: as §1
# Gal4S(b1-4)GlcNAc = target: Gal4S(b1-4)GlcNAc
# Summary of the method: as §1
# Gal4S6S(b1-4)GlcNAc = target: Gal4S6S(b1-4)GlcNAc
# Summary of the method: as §1
# Gal6P(b1-4)GlcNAc = target: Gal6P(b1-4)GlcNAc
# Summary of the method: as §1
# Gal6S(b1-3)GlcNAc = target: Gal6S(b1-3)GlcNAc
# Summary of the method: as §1
# Gal6S(b1-3)GlcNAc6S = target: Gal6S(b1-3)GlcNAc6S
# Summary of the method: as §1
binder,measurement,setting,value
B1,glycan array binding signal (z-score),[1],-0.114
same,glycan array binding signal (z-score),[2],-0.112
same,glycan array binding signal (z-score),[3],-0.113
same,glycan array binding signal (z-score),[4],-0.108
same,glycan array binding signal (z-score),Gal(b1-4)GlcNAc6P,-0.114
same,glycan array binding signal (z-score),Gal(b1-6)Gal,-0.107
same,glycan array binding signal (z-score),Gal3S(b1-3)GalNAc,-0.116
same,glycan array binding signal (z-score),Gal3S(b1-3)GlcNAc,-0.114
same,glycan array binding signal (z-score),[5],-0.116
same,glycan array binding signal (z-score),Gal3S(b1-4)Glc,-0.112
same,glycan array binding signal (z-score),Gal3S(b1-4)Glc6S,-0.114
same,glycan array binding signal (z-score),Gal3S(b1-4)GlcNAc,-0.111
same,glycan array binding signal (z-score),[6],-0.102
same,glycan array binding signal (z-score),[7],-0.116
same,glycan array binding signal (z-score),[8],-0.112
same,glycan array binding signal (z-score),Gal3S4S(b1-4)GlcNAc,-0.115
same,glycan array binding signal (z-score),Gal3S6S(b1-4)GlcNAc,-0.105
same,glycan array binding signal (z-score),Gal3S6S(b1-4)GlcNAc6S,-0.116
same,glycan array binding signal (z-score),Gal4S(b1-4)GlcNAc,-0.115
same,glycan array binding signal (z-score),Gal4S6S(b1-4)GlcNAc,-0.118
same,glycan array binding signal (z-score),Gal6P(b1-4)GlcNAc,-0.115
same,glycan array binding signal (z-score),Gal6S(b1-3)GlcNAc,-0.115
same,glycan array binding signal (z-score),Gal6S(b1-3)GlcNAc6S,-0.102

# — the supplement of paper PMC8728848
